# In the supplement of paper PMC8728848:
# This is one part of the list.
# B1: Si Bti9 1b-V5-his (Solanum lycopersicum) (protein)
# chain: MQCNRGCDLALASFYVWRGSNLTLISEMFSTSIADIVSYNNRDNIPNQDSVIAGTRINIPFRCDCLNDGEVLGHAFPYRVKSGDTYDLVARNYSDLTTAQWMMKFNSYPENNIPNTVNLSVVVNCSCGNSDVSKDFGLFVTYPVRAEDNLTSVASAANVSEDIIRRYNPAAVSILDIGQGIIYIPGRDRNGNFPPLPTSTDGLSGGAKKGGRADPAFLYKVVINSKLEGKPIPNPLLGLDSTRTGHHHHHH
# Assays:
# Experiment in all cases: glycan array binding signal (z-score within array); higher = stronger binding
# Conditions in all cases: glycan notation: IUPAC condensed, linker removed
# [1] = molecular target: Gal(b1-4)GlcNAc(b1-3)Gal(b1-4)GlcNAc(b1-6)[Gal(b1-3)]GalNAc
# How it was run: (§1)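 From the Consortium for Functional Glycomics database, 3228 arrays were curated, keeping only those whose protein sequence was available. Binding is given as a within-array Z-score averaged across arrays sharing a protein sequence and across linkers. Negative Z-scores can be read as non-binding.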
# [2] = molecular target: Gal(b1-4)GlcNAc(b1-3)Gal(b1-4)[Fuc(a1-3)]GlcNAc(b1-3)Gal(b1-4)[Fuc(a1-3)]GlcNAc
# How it was run: as §1
# [3] = molecular target: Gal(b1-4)GlcNAc(b1-3)GalNAc
# How it was run: as §1
# [4] = molecular target: Gal(b1-4)GlcNAc(b1-3)[Fuc(a1-3)GlcNAc(b1-6)]Gal(b1-4)Glc
# How it was run: as §1
# [5] = molecular target: Gal(b1-4)GlcNAc(b1-3)[Gal(b1-4)GlcNAc(b1-6)]Gal(b1-4)GlcNAc
# How it was run: as §1
# [6] = molecular target: Gal(b1-4)GlcNAc(b1-3)[GlcNAc(b1-6)]Gal(b1-4)GlcNAc
# How it was run: as §1
# [7] = molecular target: Gal(b1-4)GlcNAc(b1-6)Gal(b1-4)GlcNAc
# How it was run: as §1
# [8] = molecular target: Gal(b1-4)GlcNAc(b1-6)GalNAc
# How it was run: as §1
# [9] = molecular target: Gal(b1-4)GlcNAc(b1-6)[Gal(b1-3)]GalNAc
# How it was run: as §1
# [10] = molecular target: Gal(b1-4)GlcNAc(b1-6)[Gal(b1-4)GlcNAc(b1-3)]GalNAc
# How it was run: as §1
# [11] = molecular target: Gal(b1-4)GlcNAc6P
# How it was run: as §1
# [12] = molecular target: Gal(b1-6)Gal
# How it was run: as §1
# [13] = molecular target: Gal3S(b1-3)GalNAc
# How it was run: as §1
# [14] = molecular target: Gal3S(b1-3)GlcNAc
# How it was run: as §1
# [15] = molecular target: Gal3S(b1-3)[Fuc(a1-4)]GlcNAc
# How it was run: as §1
# [16] = molecular target: Gal3S(b1-4)Glc
# How it was run: as §1
# [17] = molecular target: Gal3S(b1-4)Glc6S
# How it was run: as §1
# [18] = molecular target: Gal3S(b1-4)GlcNAc
# How it was run: as §1
# [19] = molecular target: Gal3S(b1-4)[Fuc(a1-3)]Glc6S
# How it was run: as §1
# [20] = molecular target: Gal3S(b1-4)[Fuc(a1-3)]GlcNAc
# How it was run: as §1
# [21] = molecular target: Gal3S(b1-4)[Fuc(a1-3)]GlcNAc6S
# How it was run: as §1
# [22] = molecular target: Gal3S4S(b1-4)GlcNAc
# How it was run: as §1
# [23] = molecular target: Gal3S6S(b1-4)GlcNAc
# How it was run: as §1
# [24] = molecular target: Gal3S6S(b1-4)GlcNAc6S
# How it was run: as §1
# [25] = molecular target: Gal4S(b1-4)GlcNAc
# How it was run: as §1
# [26] = molecular target: Gal4S6S(b1-4)GlcNAc
# How it was run: as §1
# [27] = molecular target: Gal6P(b1-4)GlcNAc
# How it was run: as §1
# [28] = molecular target: Gal6S(b1-3)GlcNAc
# How it was run: as §1
# [29] = molecular target: Gal6S(b1-3)GlcNAc6S
# How it was run: as §1
# [30] = molecular target: Gal6S(b1-4)Glc
# How it was run: as §1
# [31] = molecular target: Gal6S(b1-4)Glc6S
# How it was run: as §1
# [32] = molecular target: Gal6S(b1-4)GlcNAc
# How it was run: as §1
# [33] = molecular target: Gal6S(b1-4)GlcNAc6S
# How it was run: as §1
# [34] = molecular target: GalNAc(a1-3)Gal
# How it was run: as §1
# [35] = molecular target: GalNAc(a1-3)GalNAc
# How it was run: as §1
# [36] = molecular target: GalNAc(a1-3)GalNAc(b1-3)Gal(a1-4)Gal(b1-4)Glc
# How it was run: as §1
# [37] = molecular target: GalNAc(a1-3)GalNAc(b1-3)Gal(a1-4)Gal(b1-4)GlcNAc
# How it was run: as §1
binder,measurement,setting,value
B1,glycan array binding signal (z-score),[1],-0.04
same,glycan array binding signal (z-score),[2],-0.264
same,glycan array binding signal (z-score),[3],-0.258
same,glycan array binding signal (z-score),[4],-0.305
same,glycan array binding signal (z-score),[5],-0.26
same,glycan array binding signal (z-score),[6],-0.082
same,glycan array binding signal (z-score),[7],-0.272
same,glycan array binding signal (z-score),[8],2.79
same,glycan array binding signal (z-score),[9],-0.243
same,glycan array binding signal (z-score),[10],0.584
same,glycan array binding signal (z-score),[11],-0.289
same,glycan array binding signal (z-score),[12],-0.242
same,glycan array binding signal (z-score),[13],0.177
same,glycan array binding signal (z-score),[14],-0.08
same,glycan array binding signal (z-score),[15],-0.213
same,glycan array binding signal (z-score),[16],1.61
same,glycan array binding signal (z-score),[17],0.754
same,glycan array binding signal (z-score),[18],0.09
same,glycan array binding signal (z-score),[19],0.443
same,glycan array binding signal (z-score),[20],-0.345
same,glycan array binding signal (z-score),[21],1.04
same,glycan array binding signal (z-score),[22],-0.283
same,glycan array binding signal (z-score),[23],0.103
same,glycan array binding signal (z-score),[24],0.163
same,glycan array binding signal (z-score),[25],-0.307
same,glycan array binding signal (z-score),[26],-0.191
same,glycan array binding signal (z-score),[27],-0.317
same,glycan array binding signal (z-score),[28],-0.294
same,glycan array binding signal (z-score),[29],-0.167
same,glycan array binding signal (z-score),[30],-0.149
same,glycan array binding signal (z-score),[31],0.068
same,glycan array binding signal (z-score),[32],-0.119
same,glycan array binding signal (z-score),[33],-0.235
same,glycan array binding signal (z-score),[34],-0.318
same,glycan array binding signal (z-score),[35],-0.039
same,glycan array binding signal (z-score),[36],-0.423
same,glycan array binding signal (z-score),[37],-0.346
